In paper PMC12136788:
Some of the results follow.

B1: chr16:91657502:91657503:+_ENSMUSG00000022961_ENSMUST00000114036|mus_mus|FALSE|FALSE (ssRNA)
RNA: GGGAGUUCUACAGUCCGACGAUCUCUAGGUGCUAACCUGUAUGGCCUAGGUGCUAUCCUAUAGGACCUGGGUGCUAUUCUAUAGGGCCUAGGUGAUACCCUAUAGGGAUCCGGAGUUAGUCUGUAGGGAUCAUGGCCUAAUCUCAACAGAGGAUUGAGCAUCA
B2: chr4:175158536:175158537:-_ENSG00000164117_ENST00000503293|hu_mus|motif|central (ssRNA)
RNA: GGGAGUUCUACAGUCCGACGAUCGAUUUUACACACAGGCUGGACUGGAGUGACCAGUGCUGAUGCAACCCUGCUGCCACGGAGUCUGUCCCUGGGUAGCCUCAGUCUGGAGUAAAAAGUUGAAGUUCGAACACUUGUGCUUUUCAACAGAGGAUUGAGCAUCA
B3: chr6:40197388:40197389:+_ENSMUSG00000057716_ENSMUST00000061740|mus_mus|mus_mus_mus_hu_False|28_28 (ssRNA)
RNA: GGGAGUUCUACAGUCCGACGAUCGAGACACUGGGGUGGAUUUAUUCCACCUCUGUUUGGGUGCUAGCCACUAAGACUGUUAUUUUGGGAUUCAUGGCCUUGAAUAUCAAGAGGAAAAGGAAGAGGAUGGAAAGAGUCAAGAGUCAACAGAGGAUUGAGCAUCA
B4: chr1:220276048:220276049:+_ENSG00000067704_ENST00000302637|hu_mus|FALSE|FALSE (ssRNA)
RNA: GGGAGUUCUACAGUCCGACGAUCGCAAAUUGCCUGGUUGGCGGGAAUUGUCCAAGGCUGGGUGGUCCAAACUAAAACGCUAACAGGGGAUGAGGCAUCUGUAAGAGACUCCAACUUCGGAGGAGGUCUCAGGAGGGGGAAUCUCAACAGAGGAUUGAGCAUCA
B5: 74386376_74392459_548_CDS_ENSG00000114978_ENST00000396049|human|control|control (ssRNA)
RNA: GGGAGUUCUACAGUCCGACGAUCGACACCAAUCUUAGAAGGAAAAAGAGUUUCAUCAUCAAGCUGAUCUUGAACCCAAGUCAUCAAAUAGUCAAUGUAUUUUGGUGCAGAACAUUUGAUUGGCUUUUUAAUAUUAGUACCAUCCAACAGAGGAUUGAGCAUCA
B6: chr2:210595268:210595269:+_ENSG00000078018_ENST00000392194|hu_hu|motif|central (ssRNA)
RNA: GGGAGUUCUACAGUCCGACGAUCUGUAAAGCCAGUGUCUUCCUGUUGCAAAUGGAAAUCAGGUCAAUUUCUGCAUGUACGGUUCAUUUUUUAAAUAGAAAAUUGUAACAAUUACUACAGUUUGGGGAUGAGAUUAUUUAUUUUCAACAGAGGAUUGAGCAUCA
B7: chr4:47484081:47484082:-_ENSMUSG00000039740_ENSMUST00000044148|mus_mus|FALSE|FALSE (ssRNA)
RNA: GGGAGUUCUACAGUCCGACGAUCCCAUUACGCUCUGAAGUCAAAUCAAUUGACUGUGACAAUGGUAAGACCUACACUACUAAAGCCAAUUAAGGCACUGGAUGAUCAAACCUUUAUAUAUAAAGGAACAAUAAUCCAGGAAAACAACAGAGGAUUGAGCAUCA
B8: chr12:42180722:42180723:-_ENSMUSG00000036295_ENSMUST00000043884|mus_hu|mus_mus_mus_hu_True|48_88 (ssRNA)
RNA: GGGAGUUCUACAGUCCGACGAUCCUGUAGGAGAAGAAUCUGUGUGUCGGCAGGCAAUCUGGCUGGGAAAGUUAAAAGACCUAAAUCAUUACAGUCCACUGUAGAUGCUUCCAUAUAAAUGGAUCUGGGUGUAAACCAAGGCCUCAACAGAGGAUUGAGCAUCA
B9: chr7:151048522:151048523:+_ENSG00000013374_ENST00000566856|hu_mus|hu_hu_hu_mus_True|8_68 (ssRNA)
RNA: GGGAGUUCUACAGUCCGACGAUCCUGUUUCUUAUUUAUUACGAUCUUGAUGUAAUUUUCUUGAAAUCCAAAGGUUUCAGCUAUUUGACACCUCAGGUCUCUACCAGUGACAUGCAAGCGGGUCUCCAACAAGUUUUUCUUAUCCAACAGAGGAUUGAGCAUCA
B10: chr11:87793471:87793472:-_ENSMUSG00000020483_ENSMUST00000020775|mus_mus|mus_mus_mus_hu_False|38_78 (ssRNA)
RNA: GGGAGUUCUACAGUCCGACGAUCUGGACUUGAAAAUAAAAGAAUAAGCUGGAUCCCCCCACCCCUUACAUUGUCAACCCUACACGAGAGUUUUGAAUGAUUCAUAAGAAAAUCAGCAGCUCAAACGGCAAUGACCACCCCACCCAACAGAGGAUUGAGCAUCA
B11: 40942872_40943970_480_3pUTR_ENSMUSG00000001627_ENSMUST00000001672|mouse|control|control (ssRNA)
RNA: GGGAGUUCUACAGUCCGACGAUCCUUCAAGAGCUGCCUGUCUUGUCUUCGCACUCUUAUCAAGGGUUAGGUCAAUUAAUCCCUUCAACUUGUACUCUAAGUCUUCUUGAGUUCCUUCCUCAUCAAGAACUUCUGGCCCAUCCUCAACAGAGGAUUGAGCAUCA
B12: chr4:133217533:133217534:-_ENSMUSG00000043257_ENSMUST00000062118|mus_mus|FALSE|FALSE (ssRNA)
RNA: GGGAGUUCUACAGUCCGACGAUCUACAUAGCAAGCAAGUUCUAGGACAGUCAGAGUUACACAGAGGGACCUUGUCUUAGCUCCCCUGACUACCCCUCCUCCAGAAAAAGGUAAUUCAUUGCAAAAGGAGUAUUUAGAUUUUCACAACAGAGGAUUGAGCAUCA
B13: chr2:179979976:179979977:-_ENSG00000187231_ENST00000335289|hu_hu|FALSE|FALSE (ssRNA)
RNA: GGGAGUUCUACAGUCCGACGAUCCCUGUAGCAACUGCCUGCCAUAGUCAUAAGUGCUCUGUGCAACAUCAACAAAUUUUCUAUGCUUUUCCAGCAAAACUUUCGUUUCUUGAGCAUCAUCGCCCAAUCUGAUGUGAGUCUUAACAACAGAGGAUUGAGCAUCA
B14: chr5:145543945:145543946:-_ENSG00000133706_ENST00000545646|hu_hu|hu_hu_hu_mus_True|18_18 (ssRNA)
RNA: GGGAGUUCUACAGUCCGACGAUCCUGAACGGCCAGUGGUGGGAAAUAAUCAAGCCAGUGCUCUGCUUCAGAAAACUUCACUAUGUCGUCAUCAGAGAGCCCAAGGGAUUUCAUAAUGCCCCACUGGUACUUAGAAGAUCCUGCCAACAGAGGAUUGAGCAUCA
B15: chr11:118888195:118888196:-_ENSG00000118181_ENST00000527673|hu_hu|motif|central (ssRNA)
RNA: GGGAGUUCUACAGUCCGACGAUCUUUAUAGUUGGGAACUUCCUUACAGAGUUUAUCAUAGGUAGCUUUGUCAAACAAGACGGAGUUAUUGAGCUUGUCCCGAACUUUGCCUUUGGACCACUUCUUCUUUUUGGCCUUGCCCCCCAACAGAGGAUUGAGCAUCA
B16: chr5:37680062:37680063:+_ENSMUSG00000029121_ENSMUST00000031004|mus_hu|mus_mus_mus_hu_False|18_58 (ssRNA)
RNA: GGGAGUUCUACAGUCCGACGAUCUUUGGGUGUAGCUGGUACCUCGUACACAGGACCGUCAUACAUGCCCCUGGAAACACUAUGCAAUCCAAAAACCUUAUUCCUGAUUUUGACGCGCUGGUAGAGAUGCUCCGGGAACGCCUUCAACAGAGGAUUGAGCAUCA
B17: chr12:1019172:1019173:+_ENSG00000060237_ENST00000535572|hu_hu|FALSE|FALSE (ssRNA)
RNA: GGGAGUUCUACAGUCCGACGAUCUAUAUGACAGUCACUGGCCAGGCAUCACGUUUGUUUCCUCAUUCUUUAGUCUUUGUCUUUCACCCAGCACACACCAUUCUUUUAAGUUGUCCAAUUUUGUUACAACACCCCCUCCUCACUCAACAGAGGAUUGAGCAUCA
B18: chr17:64801638:64801639:+_ENSG00000154229_ENST00000413366|hu_mus|hu_hu_hu_mus_False|1_18 (ssRNA)
RNA: GGGAGUUCUACAGUCCGACGAUCUAUAUAUAUAUAUACAUAUGUACACAUAUAUAGUAAAACCCUAGUUAAACGUGUAAAGUAGCCAUUCAUUUUUAAAAUUACAUCUACAUUAAAAAAGUAAUCUAUCUGAUAGAGUGCCCACAACAGAGGAUUGAGCAUCA
B19: 46579208_46579328_5643_3pUTR_ENSG00000111371_ENST00000398637|human|control|control (ssRNA)
RNA: GGGAGUUCUACAGUCCGACGAUCUUCUCAACAGGGUCUGUAACUGUAAAAAAGGAAAGUGGGUGGAGAGGUUUUUUUUUCCCCCUUUUUUCUUGUUUUCUAACCUCCCAGCUUAUUCCUGGAGAGUUAAAACACAGUUACUAGCAACAGAGGAUUGAGCAUCA
B20: chr2:216981417:216981418:+_ENSG00000079246_ENST00000392132|hu_hu|hu_hu_hu_mus_True|8_18 (ssRNA)
RNA: GGGAGUUCUACAGUCCGACGAUCCUGAUACUGGUCCUUGCCAGCAAGGGCAUUAUCAGUGCCAUCUGUGCCAUAGAGGACUAACGCAAUCUCAUCUUUGCUCUCCGAAAAUACCUGUCGCUGUACAAACAUGGUUAUCACUUUCAACAGAGGAUUGAGCAUCA
B21: chr6:38652254:38652255:-_ENSG00000124767_ENST00000373365|hu_hu|hu_hu_hu_mus_False|58_68 (ssRNA)
RNA: GGGAGUUCUACAGUCCGACGAUCCGAGAACUUCAUAGCAGGGAAGUCAAGCUUCUGCAGGAGGGUCAUUCCAAGAACUCUAGUAUAAAAAUCCAGGGACUUCUUAGGAUCCUUAAUUCUUAGCAUCGUUUGCUGCAGUAGAAACAACAGAGGAUUGAGCAUCA
B22: chr6:83880054:83880055:+_ENSMUSG00000030016_ENSMUST00000032088|mus_mus|FALSE|FALSE (ssRNA)
RNA: GGGAGUUCUACAGUCCGACGAUCUAUUCUUGGAGAUGCUGCAUAAUAAUCAUUCAUCAUAGAAGGGGUUGGCAGUCUCUUCAUUUUCUGGGCACCAGCUUGUGUAAACUUUGGUAGCCACGAAGCUUUCACAAUCCCAAAGGGCAACAGAGGAUUGAGCAUCA

The binders below were run against T1, UNK ZnF1-3 (human, UniProt Q9C0B0 31-174) (assay: nsRBNS (natural sequence RNA bind-n-seq); RBNS binding buffer (assumed for nsRBNS): 25 mM Tris pH 7.5, 150 mM KCl, 3 mM MgCl2, 0.01% Triton X-100, 500 ug/ml BSA, 20 U/ml SUPERase-In, 4 C; UNK is unkempt and MSI1 is Musashi-1; names of the RNAs are library labels; protein concentration not given here; high values mean tight binding).
T1 sequence: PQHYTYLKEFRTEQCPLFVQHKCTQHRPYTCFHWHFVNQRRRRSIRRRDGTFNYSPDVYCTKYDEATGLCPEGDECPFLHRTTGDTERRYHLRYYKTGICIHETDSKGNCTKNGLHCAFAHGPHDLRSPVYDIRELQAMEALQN
B1 showed a binding signal of 0.421 enrichment R. Binder B2 has a binding signal of 0.878 enrichment R. In the case of B3, the binding signal is reported as 1.48 enrichment R. For B4, the binding signal was 1.77 enrichment R. Work on B5 yielded a binding signal of 1.06 enrichment R. B6 showed a binding signal of 2.59 enrichment R. B7 gave a binding signal of 0.628 enrichment R. With B8 the binding signal was 1.22 enrichment R. For B9, the binding signal was 0.63 enrichment R. B10 was tested, and the binding signal was 1.68 enrichment R. Binder B11 has a binding signal of 0.529 enrichment R. For B12, the binding signal was 1.06 enrichment R. B13 gave a binding signal of 0.93 enrichment R. Work on B14 yielded a binding signal of 0.897 enrichment R. Work on B15 yielded a binding signal of 0.694 enrichment R. With B16 the binding signal was 0.837 enrichment R. For B17, the binding signal was 0.861 enrichment R. B18 gave a binding signal of 1.15 enrichment R. Work on B19 yielded a binding signal of 1.04 enrichment R. In the case of B20, the binding signal is reported as 0.769 enrichment R. Work on B21 yielded a binding signal of 1.09 enrichment R. Binder B22 has a binding signal of 0.833 enrichment R.
